Consider 43 compounds from ChEMBL document CHEMBL4888484, “Replenishing the malaria drug discovery pipeline: Screening and hit evaluation of the MMV Hit Generation Library 1 (HGL1) against asexual blood stage Plasmodium falciparum ,using a nano luciferase reporter read-out” (2022).

By % Inhibition is commonly meant the relative decrease from the control value, in per cent.

Among all 150,000 compounds or so, about 540 (0.36%) showed an effect of 50% or more. This is one part of the list.

The subject of this test is Plasmodium falciparum. Description: Primary screen in NF54 nanoGlo assay, in single point, at 2uM, 72h; a lower Z score goes with more inhibition. In kind it is functional, Erythrocyte. Conditions: timepoint 72 hour.
Take `COc1cncc(O[C@H]2CCCN(C(=O)c3ccc(C#N)cc3)C2)n1`: the “% Inhibition” value is -10% and the Z score was found to be 1.68.
Take `CN1C[C@@H](c2ccccc2)CC2(CCN(Cc3cccnc3)CC2)C1`: the “% Inhibition” value is -9% and the Z score was found to be 1.21.
The corresponding values for `Cc1ccccc1-c1cc(C(=O)Nn2cnnc2)c2ccccc2n1` are -11% and 1.43.
As for `CC1CCCC(C)N1C(=O)CN1CCCC1c1nnc2ccccn12` (stereo unspecified), the “% Inhibition” value is listed as -2% and the Z score is 0.21.
Regarding `O=C1N[C@]2(CCc3ccccc3C2)C(=O)N1Cc1cccc2ncnn12`, the “% Inhibition” value was 10% and the Z score is -1.66.
Consider `CC(=O)Nc1c(F)cc(C(C)=O)cc1F`, for which the “% Inhibition” value was -14% and the Z score came to 1.34.
Turning to `CC[C@@H](C(=O)N1CCCc2c(F)ccc(F)c21)N1CCCC1=O`, the “% Inhibition” value is -10% and the Z score was 1.33.
The corresponding values for `Cc1cc2cc(C(=O)NCC(=O)Nc3cccnc3)oc2cc1C` are -27% and 2.72.
Regarding `CN1/C(=N/NC(=O)c2ccccc2)C(=O)c2ccccc21`, the “% Inhibition” value is 8% and the Z score is -1.03.
The corresponding values for `CC(C1CC1)N(Cc1ccccc1)C(=O)C1CCCN(C(=O)c2cccs2)C1` (stereo unspecified) are 3% and -0.38.
Turning to `CC(C)N1C[C@@H](NC(=O)c2cccc(NCc3cccs3)c2)CC1=O`, the “% Inhibition” value is listed as 5% and the Z score is -0.74.
For `CCc1cc(N2CCCO2)nc(-c2ccncc2)n1`, the “% Inhibition” value is given as 1% and the Z score is -0.06.
In the case of `CCCCN1CCCC[C@@H]1CNC(=O)Nc1cccnc1`, the “% Inhibition” value is given as -8% and the Z score is on record as 1.16.
As to `Clc1cnccc1CN1CCCCCC1`, the “% Inhibition” value was 3% and the Z score is listed as -0.48.
Consider `c1ccc(N2CC[C@H](C3CCOCC3)C2)nc1`, for which the “% Inhibition” value is listed as -5% and the Z score was 0.72.
As to `Cc1ccc(NS(=O)(=O)c2cc(-c3csc(C)n3)ccc2C)c(Cl)c1`, the “% Inhibition” value turned out to be 7% and the Z score was -0.98.
Consider `Cc1cc(C(=O)NC[C@H]2CCCOC2)cc(O)n1`, for which the “% Inhibition” value is listed as -4% and the Z score is 0.64.
On to `COc1cccc(Cc2c(C)nc(C3CC3)nc2N2CCN(C(=O)[C@H]3CCOC3)CC2)c1`, for which the “% Inhibition” value was determined as 4% and the Z score is given as -0.47.
Take `Cc1cnc(NCCCS(C)(=O)=O)nc1`: the “% Inhibition” value is recorded as -7% and the Z score is listed as 0.62.
`CCN(C(=O)N1CCC(OC2CCCCC2)CC1)C(C)C`: the “% Inhibition” value is listed as -1% and the Z score is recorded as 0.09.
For the compound `Cc1cc(=O)[nH]c(CCn2ccnc2-c2ccnc3ccccc23)n1`, the “% Inhibition” value is listed as -18% and the Z score is on record as 2.47.
On to `Fc1ccc(CO[C@H]2CCCc3c[nH]nc32)cc1Br`, for which the “% Inhibition” value is on record as -10% and the Z score is recorded as 1.67.
`CCC(CC)C(=O)N1CCC[C@H](N(CCN2CCCCC2)C(C)=O)C1`: the “% Inhibition” value was -9% and the Z score is 1.17.
The like results for `CCc1nc(-c2ccccc2)nc(N2CCN(C(=O)c3ccccc3Cl)CC2)c1Cc1cc(C)ccc1C` were, in that order, -15% and 2.19.
With `O=c1c2ccccc2ncn1CCCc1ncnn1CCO`, the “% Inhibition” value was -5% and the Z score is reported as 0.77.
Turning to `Cc1cnccc1CC(=O)N[C@H](C)c1ccc(Br)cc1`, the “% Inhibition” value is given as -5% and the Z score is reported as 0.83.
For the compound `Cc1cc(C)nc(CCNc2cc(C3CC(O)C3)nc(N)n2)n1` (stereo unspecified), the “% Inhibition” value is on record as -10% and the Z score is recorded as 1.33.
In the case of `CN(Cc1csc(-c2ccoc2)n1)C1CCS(=O)(=O)CC1`, the “% Inhibition” value is -16% and the Z score is recorded as 1.83.
Consider `Cc1ccc(N2CC[C@@](O)(C(F)(F)F)C2)nn1`, for which the “% Inhibition” value was 0% and the Z score worked out at 0.06.
`CC1CCN(C(=O)NCCOCC2CCCO2)C(C)C1` (stereo unspecified): the “% Inhibition” value was found to be 12% and the Z score was -1.71.
In the case of `O=C(COC1CCCC1)Nc1nc(-c2ccco2)cs1`, the “% Inhibition” value is -11% and the Z score was determined as 1.8.
On to `C[C@H]1CCN(C(=O)c2coc(Br)c2)CCS1(=O)=O`, for which the “% Inhibition” value was 6% and the Z score is reported as -0.79.
Turning to `Cc1nc2n(n1)C[C@@H](Nc1ncc(Cl)cc1Br)CC2`, the “% Inhibition” value was -2% and the Z score was 0.21.
Regarding `CCCc1nc(CNC(=O)c2cnc[nH]2)cs1`, the “% Inhibition” value is reported as -6% and the Z score is 1.14.
As for `COc1ccc(C2CC(C)N(C(=O)[C@@H]3CCCN3)C2)cc1` (stereo partly specified), the “% Inhibition” value is on record as -4% and the Z score stood at 0.58.
With `COc1ccccc1Oc1nc(N2CCN(C)CC2)nc2c1CN(C(=O)c1cccc(C)c1)CC2`, the “% Inhibition” value was -18% and the Z score is 2.1.
The like results for `CS(=O)(=O)CC1(CC(=O)N(C2CC2)[C@H]2CCc3ccccc32)CC1` were, in that order, 5% and -0.85.
The corresponding values for `COc1ccc([C@H]2NCCc3[nH]cnc32)cc1Cn1cncn1` are -7% and 1.38.
In the case of `Cc1cnn(Cc2cc(C(=O)NC3c4ccccc4CC3O)no2)c1` (stereo unspecified), the “% Inhibition” value was -8% and the Z score came out at 1.25.
`CCOc1cccc(NC(=O)N(C)Cc2nc(C)c[nH]2)c1`: the “% Inhibition” value is -1% and the Z score is given as 0.15.
The like results for `CC1CCN(C(=O)c2cnc3[nH]c(=O)[nH]c3c2)C(C(N)=O)C1` (stereo unspecified) were, in that order, 0% and -0.07.
On to `CN(Cc1ccc2nc(N)sc2c1)C1CC1`, for which the “% Inhibition” value is reported as -3% and the Z score amounted to 0.47.
Take `CC(C)CCNC(=O)CC[C@@H](C)[C@H]1CC[C@H]2[C@@H]3[C@@H](O)C[C@@H]4C[C@H](O)CC[C@]4(C)[C@H]3CC[C@]12C`: the “% Inhibition” value is recorded as -4% and the Z score is recorded as 0.5.
